The campaign covered roughly 310,000 compounds. About 14,000 (4.5%) showed an effect of 50% or more. Effects have a minus sign here. This is one part of the list.
biological target: human ether-à-go-go-related gene (hERG) potassium channel (human, UniProt Q12809); test: primary screen, population patch clamp on CHO cells stably expressing hERG
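Further: peak tail current of the secondary pulse compared with the same well before compound.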

Chain of human ether-à-go-go-related gene (hERG) potassium channel (Q12809 whole entry, looked up): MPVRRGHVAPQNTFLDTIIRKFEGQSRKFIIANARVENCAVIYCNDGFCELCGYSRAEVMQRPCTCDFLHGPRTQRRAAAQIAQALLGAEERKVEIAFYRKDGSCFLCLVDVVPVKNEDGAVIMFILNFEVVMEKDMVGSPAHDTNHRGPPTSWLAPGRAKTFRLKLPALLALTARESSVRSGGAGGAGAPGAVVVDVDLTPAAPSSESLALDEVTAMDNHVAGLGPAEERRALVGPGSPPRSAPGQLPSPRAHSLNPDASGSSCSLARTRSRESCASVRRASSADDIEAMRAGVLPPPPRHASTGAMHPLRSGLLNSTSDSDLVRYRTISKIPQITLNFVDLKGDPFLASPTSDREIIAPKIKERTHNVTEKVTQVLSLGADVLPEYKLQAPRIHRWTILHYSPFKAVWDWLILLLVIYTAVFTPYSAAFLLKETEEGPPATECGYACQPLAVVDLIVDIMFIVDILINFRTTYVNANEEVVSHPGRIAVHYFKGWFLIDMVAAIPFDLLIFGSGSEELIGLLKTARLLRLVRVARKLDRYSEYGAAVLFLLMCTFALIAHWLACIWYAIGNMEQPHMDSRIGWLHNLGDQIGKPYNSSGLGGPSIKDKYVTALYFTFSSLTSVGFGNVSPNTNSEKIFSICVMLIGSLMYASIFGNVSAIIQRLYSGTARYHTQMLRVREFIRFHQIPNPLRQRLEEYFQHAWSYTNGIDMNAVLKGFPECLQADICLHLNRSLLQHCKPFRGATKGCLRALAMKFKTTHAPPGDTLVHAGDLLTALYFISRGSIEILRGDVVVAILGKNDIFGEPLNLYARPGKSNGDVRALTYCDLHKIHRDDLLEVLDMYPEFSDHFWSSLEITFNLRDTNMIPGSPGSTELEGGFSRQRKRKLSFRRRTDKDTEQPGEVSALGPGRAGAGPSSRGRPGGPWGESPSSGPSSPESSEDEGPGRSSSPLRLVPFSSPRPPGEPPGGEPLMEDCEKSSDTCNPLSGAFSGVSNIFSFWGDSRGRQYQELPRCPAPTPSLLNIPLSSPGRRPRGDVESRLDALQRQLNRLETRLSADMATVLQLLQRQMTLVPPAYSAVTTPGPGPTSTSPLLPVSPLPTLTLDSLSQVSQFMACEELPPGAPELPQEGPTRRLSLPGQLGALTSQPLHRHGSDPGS

Compound | hERG current change (%, negative = inhibition) at 10uM [%]
Cc1nc2ccccc2c2c1C(=O)N(c1ccc(C(=O)O)cc1)C2=O | -10.8
Cc1c(C2Nc3ccccc3C(=O)N2O)cnn1C (centres unmarked) | -5.29
COc1ccc(N(C(=O)C(C)C)S(=O)(=O)c2ccc3ccccc3c2)cc1 | -13.7
COc1ccc(C(c2nnnn2Cc2ccc(F)cc2)N2CCN(c3ccccc3)CC2)cc1 (centres unmarked) | -4.37
COc1ccc2c(c1)C(c1cccs1)=NNC(c1ccncc1)=N2 | -10.3
CCCCc1cc(=O)oc2cc(C)cc(OCC(=O)N3CCC(C(N)=O)CC3)c12 | -13.6
C=CCN1C2CCCC1CC(NC(=O)Nc1cccc(C(C)=O)c1)C2 (centres unmarked) | 5.52
Cc1c(NC(=O)CN2C(=O)C3C4C=CC(C4)C3C2=O)c(=O)n(-c2ccccc2)n1C (centres unmarked) | 3.02
O=C1OCC(c2ccc(Cl)s2)=C1c1ccccc1[N+](=O)[O-] | 4.99
COc1ccc(CN(C)Cc2cc(=O)n3ccsc3n2)c(OC)c1OC | -9.79
Cc1cccn2cc(CNC(=O)c3ccc(Br)o3)nc12 | 1.03
O=C(Nc1ccc(NC(=O)c2ccc3c(c2)OCO3)cc1)c1cccc(Cl)c1 | 24.9
COc1cc(/C=N/NC(=O)c2cccc(S(=O)(=O)N3CCOCC3)c2)cc(OC)c1O | -9.08
CCOC(=O)C(C)n1cnc2sc(C)c(C)c2c1=O (centres unmarked) | 17
Cc1ccc(COn2c(-c3ccc(Cl)cc3Cl)nc3ncccc32)cc1 | -40
Cc1nn(Cc2ccccc2Cl)c(C)c1C(=O)N1CCN(c2ccccc2)CC1 | -58.6
O=C1OCCC1Sc1ncnc2sc3c(c12)CCC3 (centres unmarked) | -7.55
CCCNc1nc(C)nc2c1cnn2CCc1ccccc1 | -12.8
C#CCOCCOCCOCCNc1nc(N2CCOCC2)nc(N2CCN(C(=O)[C@H]([C@@H](C)O)n3cc(CCCC[NH3+])nn3)CC2)n1.[Cl-] | 13.8
Cc1ccc2[nH]c(=O)c(NC(N)=S)nc2c1 | 14
COc1ccc(OCC(=O)Nc2ccc(S(=O)(=O)Nc3cc(C)nc(C)n3)cc2)cc1 | 21
Cc1cc(OCC(=O)NC2CC(C)(C)NC(C)(C)C2)c2c(C)c(C)c(=O)oc2c1 | 15.7

Compound | hERG current change (%, negative = inhibition) at 10uM [%]
Cc1ccc(C(=O)Nc2ccc(N3CCN(C)CC3)cc2)c(Cl)c1 | -8.37
COc1ccccc1CNS(=O)(=O)c1ccc2c(c1)oc(=O)n2C | -16.7
CN(C)c1ccc(N/C=C/C(=O)C(F)(F)F)cc1 | 19
CCOc1ccc(NC(=O)c2cccc3ccccc23)cc1 | 14.4
CCC(C)(C)NC(=O)C(c1ccc(F)cc1)N(Cc1ccccc1)C(=O)c1cnccn1 (centres unmarked) | -37.6
CCOC(=O)c1c(NC(=O)CSc2nc3ccccc3[nH]2)sc2c1CC(C)(C)NC2(C)C | -45.2
CCOc1ccc(C(C)=O)cc1CN1C(=O)NC(C)(C2CC2)C1=O (centres unmarked) | 11.8
O=[N+]([O-])c1ccc(NCCCN2CCOCC2)c2ncccc12 | 31.6
CC1(C)Cc2nc3sc4c(N(CCO)CCO)ncnc4c3cc2CO1 | 3.56
CCC(=O)c1ccc(NC(C)=O)cc1O | 4.42
COCc1ccc(CN2CCCC(CCC(=O)NCc3ccc(C)o3)C2)o1 (centres unmarked) | -16.7
CN(c1ccccc1)S(=O)(=O)c1cccc(C(=O)N2CCN(c3ccccn3)CC2)c1 | -35.8
CCc1ccccc1NC(=O)c1ccc(-c2csc(C)n2)cc1 | -12.4
CCn1cc(C(=O)NCCc2ccccc2C)c(=O)c2ccc(C)nc21 | 21.1
O=C(O)C1C2CC3C(OC(=O)C31)C2Cl (centres unmarked) | 15
COc1ccc(C(=O)N2CCCC2(C#N)c2ccccc2)cc1[N+](=O)[O-] (centres unmarked) | -41
Cc1cc(C(F)F)nn1CC(=O)NC1C(=O)N2C(C(=O)O)=C(CSc3nnnn3C)CSC12 (centres unmarked) | -2.04
CC1(c2cccc([N+](=O)[O-])c2)CC(C)(C)N(C(=O)c2ccccc2)c2ccccc21 (centres unmarked) | 12.8
CCC(=O)N1CCN(c2nc(-c3ccccc3)c3c(c2C#N)CCCC3)CC1 | -19.8
O=C(Cc1ccccc1)NNC(=O)c1cccs1 | 5.31
Cc1cccc(C(=O)Oc2ccc(/C=N/NC(=O)Cc3ccc([N+](=O)[O-])cc3)cc2)c1 | 21.8
COc1ccc(CCNC(=O)N2c3ccccc3Sc3ccccc32)cc1 | 3.44

Compound | hERG current change (%, negative = inhibition) at 10uM [%]
COc1ccccc1C(=O)N/C(=C\c1ccc(Br)cc1)C(=O)NCC(=O)O | 1.78
COc1ccc(N2CCN(CC(O)COc3ccccc3[N+](=O)[O-])CC2)cc1.Cl (centres unmarked) | -44.1
COc1cccc(C(=O)NCCSCc2c(F)cccc2Cl)c1 | -29
Cc1noc(C)c1C(=O)Nc1nc(C23CC4CC(CC(C4)C2)C3)cs1 | 0.55
CC1=NCCN1S(=O)(=O)c1c(C(C)C)cc(C(C)C)cc1C(C)C | -3.48
CN(C)c1ccc(/C=C2/C=C(c3ccc4c(c3)CCCC4)OC2=O)cc1 | 11.1
Cc1ccc(NC(=O)CSc2nnc(Cn3cnc4ccccc43)o2)cc1 | -2.8
CCOc1ccc(CNC(=O)C2CCC(=O)N2C2CCCC2)cc1OC (centres unmarked) | 2.3
Cc1ccc2c(c1)c1c3n2CCNC3CCC1.Cl (centres unmarked) | -5.84
COC(=O)C1=C(c2cc3ccccc3s2)C[C@@H]2CC[C@H]1N2C | -16
Cc1ccc(CN2C(=O)CCC2C(=O)NCCc2ccccc2)cc1 (centres unmarked) | 7.99
CC(Sc1nnc(-c2ccc(Cl)cc2)n1C)C(N)=O (centres unmarked) | -5.98
N=c1oc2ccccc2cc1C(=O)Nc1ccc(F)cc1 | 16.5
Nc1ccc(Cl)c(S(=O)(=O)Nc2ccc(Cl)cc2)c1 | 17.3
COc1cc(C(=O)N2CCN(C(=O)c3cccc4ccccc34)CC2)cc(OC)c1OC | -5.14
Cn1c(=O)[nH]c(=O)c2c1nc(Br)n2CCCSc1nc2ccccc2o1 | -66.8
CC1=CCC2C(=O)N(c3ccc4ccccc4n3)C(=O)C2C1 (centres unmarked) | -1.37
COc1cc(/C=C/C(=O)O)cc(S(=O)(=O)NC2CCCC2)c1OC | 10.9
Cc1ccccc1-c1noc(-c2ccccc2C(=O)N2CCCC2)n1 | -24.9
Cc1cc(OCC(=O)Nc2sc3c(c2C#N)CC(C)(C)NC3(C)C)c(C(C)C)cc1Cl | 14.3
Cc1nc(-c2cc(-c3nc(-c4cc(C(F)(F)F)cc(C(F)(F)F)c4)no3)no2)cs1 | 2.06
CSCSC1=C(C#N)C(c2ccccc2Cl)C(C(C)=O)=C(C)N1 (centres unmarked) | -6.02

Compound | hERG current change (%, negative = inhibition) at 10uM [%]
CC(=O)N(C)/C=C1\Sc2ccccc2C1=O | -1.89
Cc1cc([N+](=O)[O-])nn1Cc1ccc(C(=O)N/N=C/c2ccccc2)cc1 | -10.3
CCN(CC)CCCNc1oc(-c2ccccc2[N+](=O)[O-])nc1C#N | -3.83
CN(C)CCCn1c(=O)n(Cc2ccccc2)c(=O)c2c3c(sc21)CCCCC3 | -58.9
O=C(N/N=C/c1cccc([N+](=O)[O-])c1)c1ccncc1 | 3.11
CCn1c(C)c(CS(=O)(=O)c2ccccc2)[nH]c1=O | 47.2
CC(=O)c1ccccc1Oc1nc(CN2CCOCC2)nc2scc(-c3cccs3)c12 | -15.3
CCN1CCN(c2cc(C)c3cc(NC(=O)CCC(=O)Nc4ccc(OC)cc4OC)ccc3n2)CC1 | 9.81
COc1cccc(C(=O)N2c3ccccc3Sc3ccccc32)c1 | 0.0972
COc1ccc(CNS(=O)(=O)c2cc(-c3cc(C)no3)ccc2OC)cc1OC | 2.57
COCCN(Cc1cc2cc3c(cc2nc1Cl)OCO3)C(=O)Nc1ccccc1OC | 16.3
CCCC(=O)N=C1SC2CS(=O)(=O)CC2N1c1ccc(CC)cc1 (centres unmarked) | -10.5
O=[N+]([O-])c1cccc(S(=O)(=O)N2CCCC2)c1 | -10.9
CCCOc1ccc(C2C3=C(CCCC3=O)N(CC(=O)O)C3=C2C(=O)CCC3)cc1OCC | 14.8
CCN=c1scc(-c2ccco2)n1/N=C/c1ccc(OC)c(O)c1 | -11.8
O=C(COC(=O)C1(c2ccccc2F)CCCC1)N1CCN(C(=O)c2ccco2)CC1 | -17.9
CCCSc1nc(C)c2cc(C)cc(C)c2n1 | 10.9
COc1cc(C2=Nc3c(c(C)nn3-c3ccccc3)P(=O)(N3CCOCC3)O2)cc(OC)c1OC (centres unmarked) | 4.36
COc1ccc(C(=O)Nc2ccc(NC(=O)c3cccs3)cc2)cc1[N+](=O)[O-] | 5.49
Cn1c(=O)c(C(=O)CN2CCCCCC2)c(N)n(Cc2ccccc2)c1=O | -13.5
